Source: PubChem BioAssay AID1948 (National Center for Advancing Translational Sciences (NCATS), 2009)
Among all 110,000 compounds or so, about 20 (0.02%) were called active. The inconclusive results got no clear call from the source; some entries with a clear call stand among them for comparison. Calls follow the shape of the dose curve; as a rule, active = well fitted activation curve with a large enough effect; inconclusive = small, poorly fitted or top-dose-only effect; inactive = no such curve, though single readings can be large or run the other way. Potencies of inconclusive entries are left out as doubtful fits.

Assay: qHTS Assay for Compounds that Induce Erasure of Genomic Imprints;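 as to activity change, positive = activation: 0% = negative control wells on the plate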
Details: mouse ES Peg3-LacZ reporter, beta-gal luminescence, 40 h; activity change, positive = activation: at 10.9 µM (top of the series) unless noted
Method in brief: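 Gelatin-coated wells received 300 freshly trypsinized female ES cells with a Peg3LacZ-Neo reporter on the maternal allele, then incubated 40 hours at 37C. BetaGlo was added for 5 minutes at room temperature before a single luminescence read.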
Potency is read from the fitted curve at half-maximal effect; tags tell the direction and shape of the fitted curve.

Compound	Potency	activity change, positive = activation
CCOc1ccc(-n2c(SCC(=O)Nc3ccc(F)cc3)nc3c([nH]c4ccccc43)c2=O)cc1	inactive	
CCOc1ccccc1CNC(=O)c1ccc2c(c1)sc1nc(-c3cccc(OC)c3)cn12		inconclusive: 37.9% [activator]
Cc1noc(C)c1-c1cncnc1N(C)Cc1ccco1	inconclusive [activator, single point]	
Cc1cc(C)cc(NC(=O)C2CCCN2S(=O)(=O)c2cccc3nsnc23)c1 (stereo not given)	inactive	
COc1cc(C(CC(=O)NCCC(C)C)N2Cc3ccccc3C2=O)cc(OC)c1OC (stereo not given)		inconclusive: 286% [activator]
COc1ccc(C2CNC(=O)C2)cc1OC1CCCC1 (stereo not given)	inconclusive [activator, single point]	
CC(C)Sc1ncc(Cl)c(C(=O)Nc2ccc(S(=O)(=O)N(C)c3ccccc3)cc2)n1	inactive	
CCNc1ncc2nc(-c3ccccc3)c(=O)n(Cc3cccc(OC)c3)c2n1	inconclusive [activator, single point]	
O=C1CSC2(C(=O)N(Cc3ccccc3)c3ccccc32)N1c1ccc(Cl)cc1 (stereo not given)	inactive	
COC(=O)c1ccc(Cn2nnc3c(=O)[nH]c(C4CCCN(S(=O)(=O)c5cccc(Cl)c5)C4)nc32)cc1 (stereo not given)		inconclusive: 56.3% [activator]
O=C(CN1C(=O)COc2ccc(S(=O)(=O)Nc3ccccc3)cc21)Nc1cccc(Cl)c1		inconclusive: 32.4% [activator]
COc1ccc(-c2nc(S(=O)(=O)c3ccc(C)cc3)c(N3CCCC3)o2)cc1	inconclusive [activator, single point]	
Clc1ccccc1-c1nccc(NCc2cccs2)n1	inconclusive [activator, partial curve]	
COc1ccc(-n2ncc(C(=O)Nc3cccc(C(F)(F)F)c3)c2C2CCN(C(=O)OC(C)(C)C)CC2)cc1		inconclusive: 41.1% [activator]
FC(F)(F)c1ccccc1-c1nc(N2CCNCC2)c2ccccc2n1	inconclusive [activator, partial curve]	
Nc1ccc(Cc2ccc(N)c(C(=O)O)c2)cc1C(=O)O	inconclusive [activator, partial curve]	
CCn1c2ccccc2c2nnc(SCc3cc(=O)n4ccsc4n3)nc21	inactive	
COc1cc(OC)cc(-c2nc3nc(C)c(CCC(=O)Nc4cc(F)ccc4F)c(C)n3n2)c1		inconclusive: 57.1% [activator]
CCOc1ccc(-c2cc(C(=O)NCc3ccc(C)cc3)c3ccccc3n2)cc1	inactive	
CCCC(CCC)C(=O)Nc1cccc(-c2cn3cccnc3n2)c1		inconclusive: 35.1% [activator]
C/C(N)=C(/C#N)C(=O)CSc1nnc(COc2ccccc2Cl)o1	inactive	
O=C(Nc1cc(Cl)cc(Cl)c1)c1ccc(F)c(S(=O)(=O)NCc2ccccc2Cl)c1		inconclusive: 57.7% [activator]
Cc1ccc(C(=O)CCNc2cccc(Br)c2)o1	inconclusive [activator, single point]	
CCOc1cccc(-c2nc3cc(C)ccc3o2)c1	inactive	

Compound	Potency	activity change, positive = activation
Cc1ccc(NC(=O)CN(c2cc(C)cc(C)c2)S(=O)(=O)c2c(C)noc2C)nc1	inactive	
O=c1c(-c2cccc(F)c2)nc2cncnc2n1Cc1ccccc1Cl	inconclusive [activator, single point]	
COc1ccccc1-c1cncnc1NCc1cccs1	inconclusive [activator, partial curve]	
CC(=O)c1ccc(-n2nnnc2SCC(=O)N2CCc3ccccc3C2)cc1	inactive	
Cc1nc2c(C(=O)NCCc3ccc(Cl)cc3)cnn2c(C)c1Cc1ccc(F)cc1	inactive	
COc1ccccc1-n1c(CNC(=O)c2ccco2)nnc1SCC(=O)Nc1ccc(F)cc1	inconclusive [activator, partial curve]	
COCCn1c(=O)c(-c2cc(F)cc(F)c2)nc2cnc(N3CCN(C)CC3)nc21	inconclusive [activator, partial curve]	
CC(C)C(=O)Nc1cc(C(F)(F)F)ccc1N1CCOCC1	inactive	
Cc1ccc(NC(=O)C2CCN(c3nnc(C)c4c(C)n(-c5ccccc5)nc34)CC2)c(Cl)c1		inconclusive: 39% [activator]
CC(=O)N1CCCc2cc(S(=O)(=O)N3CCCC(C(=O)Nc4cccc(Cl)c4C)C3)ccc21 (stereo not given)		inconclusive: 52.2% [activator]
COc1ccc(S(=O)(=O)NC(CC(=O)NCCc2ccc(OC)c(OC)c2)c2ccco2)cc1 (stereo not given)	inconclusive [activator, single point]	
C#CCN1C(=O)C(O)(CC(=O)c2cccc(OC)c2)c2ccccc21 (stereo not given)	inconclusive [activator, single point]	
CCCN(CCC)CCNC(=O)C1CCCN(S(=O)(=O)c2cccc3nsnc23)C1 (stereo not given)		inconclusive: 48.6% [activator]
CCCCNC(=O)NS(=O)(=O)c1ccc(C(=O)OC(C)C)o1	inconclusive [activator, single point]	
Cc1cn(C2CCC(CO)O2)c(=O)[nH]c1=O (stereo not given)	inconclusive [activator, single point]	
c1ccc2c(NCCN3CCOCC3)nc(-c3ccc4c(c3)OCO4)nc2c1	inconclusive [activator, single point]	
COc1ccc(-n2c(=O)c(C)nc3cnc(N4CCOCC4)nc32)cc1	inconclusive [activator, full curve, poor fit]	
O=c1cc(-c2cccc(O)c2)oc2cc(O)ccc12	inactive	
CC(C)c1nc(SCC(=O)N2CCCC2)c2ccccc2n1	inactive	
CC(C)c1ccc(NC(=O)C(Cc2ccccc2)NS(=O)(=O)c2ccc3c(c2)CCC(=O)N3)cc1 (stereo not given)	inactive	
Cc1ccc2nc(CN3CCN(S(=O)(=O)c4ccc(F)cc4)CC3)oc2c1	inactive	
CCNc1nc(NCc2ccccc2)nc(Oc2ccc(=O)[nH]n2)n1	inactive	
COC(=O)c1nc(NC2=NCCCCC2)n[nH]1	inconclusive [activator, single point]	
CCCCn1c(SCC(=O)NCC2CCCO2)nc2ccc(N3CCOCC3)cc2c1=O (stereo not given)	inconclusive [activator, partial curve]	

Compound	Potency	activity change, positive = activation
Cc1cccc(CNc2ncncc2-c2ccccc2Cl)c1	inconclusive [activator, single point]	
CCCNC(=O)NC(=O)CN1C(=O)NC(C)(c2ccc(C)cc2)C1=O (stereo not given)	inconclusive [activator, single point]	
CC(C)NC[C@H](O)c1cc(O)cc(O)c1	inconclusive [activator, single point]	
O=C(CSc1nc(-c2ccncc2)nn1CC(=O)N1CCCCC1)NC1CCCC1	inconclusive [activator, single point]	
O=C(Nc1ccc2nc(SCC(=O)N3CCCc4ccccc43)sc2c1)c1ccccc1		inconclusive: 49.3% [activator]
Cc1nc(SCc2c(F)cccc2Cl)c2c(=O)n(C)c(=O)n(C)c2n1	inactive	
OCC1O[C@@H](OC2C(O)C(CO)O[C@@]2(CO)O[C@@H]2OC(CO)C(O)C(O)C2O)C(O)C(O)C1O (stereo not given in full)	inactive	
COc1ccc(NC(=O)CCc2nnc3n(CC(C)C)c(=O)c4ccccc4n23)cc1		inconclusive: 35.1% [activator]
Cc1cc(C)cc(-n2c(SCC(=O)Nc3ccc4c(c3)OCCO4)nc3c([nH]c4ccccc43)c2=O)c1		inconclusive: 65.5% [activator]
CCOc1ccc(/C=C/C(=O)c2cccs2)cc1	inactive	
Cc1ccccc1-c1nc(N2CCN(C)CC2)c2ccccc2n1	inconclusive [activator, single point]	
CCNc1ncc2nc(C)c(=O)n(CCOC)c2n1	inconclusive [activator, single point]	
CCOC(=O)c1ccc(NS(=O)(=O)c2ccc3[nH]c4c(c3c2)CCCCC4)cc1	inactive	
O=C1N(CCCCN2C(=O)C3(OCCO3)c3ccccc32)c2ccccc2C12OCCO2	inconclusive [activator, single point]	
O=C(O)C1CC(=O)N(C2CCCCCC2)C1 (stereo not given)	inconclusive [activator, single point]	
Cc1cccc(-c2noc(CN(C(=O)C34CC5CC(CC(C5)C3)C4)C(C)C)n2)c1	inconclusive [activator, single point]	
CCC1=C(OC(=O)N(CC)CC)N2C(=O)OC(=NCCOC)[C@]2(C)[C@H]2C1=CC[C@H]1C(=O)N(CC(=O)OC)C(=O)[C@H]12	inconclusive [activator, partial curve]	
FC(F)(F)c1ccccc1-c1nccc(NCc2cccs2)n1	inconclusive [activator, full curve]	
COc1ccc(Br)cc1CNC(=O)c1cc2n(n1)CCCN(Cc1ccc(C)cc1)C2=O	inactive	
Clc1ccccc1-c1cc(NCCN2CCOCC2)ncn1	inconclusive [activator, partial curve]	
N#CCCN1CCN(S(=O)(=O)c2ccc(S(=O)(=O)N3CCOCC3)cc2)CC1	inconclusive [activator, single point]	
O=C(CSC1=Nc2ccccc2C2=NC(Cc3ccccc3)C(=O)N12)Nc1ccccc1F (stereo not given)		inconclusive: 35.3% [activator]
